# From PubChem BioAssay AID651820 (National Center for Advancing Translational Sciences (NCATS), 2012)
# Hit rate of the full screen: of about 340,000 compounds, about 12,000 (3.5%) were called active. Inconclusive results, whose numbers are uncertain, are shown with a selection of clear calls. The call rests on the fitted dose curve; in most records, active means well fitted inhibition curve with a large enough effect; inconclusive means small, poorly fitted or top-dose-only effect, or another doubt; inactive means no such curve, though single readings can be large or run the other way. Potencies of inconclusive entries are left out as doubtful fits.
# Test: qHTS Assay for Inhibitors of Hepatitis C Virus (HCV)
# Details: Huh7.5.1 HCVcc-Cre (HCVcc is cell-culture hepatitis C virus) infection, luciferase reporter, 44 h; activity change, negative = inhibition: at 41.8 µM (top of the series) unless noted
# How it was run: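 HCVcc-Cre virus at an moi near 0.5 was added right after compound to cells cultured 4 h from seeding (1,000 cells/well). Luciferase activity was determined 44 h later, 15 min after substrate addition at RT.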
# On the % scale 0 is the no-effect control and ±100 the full control effect; potency means the concentration at half of the fitted maximal effect; tags describe the fitted curve by direction and shape.
SMILES,Potency,"activity change, negative = inhibition"
Cc1c(Cc2ccc3c(c2)OCO3)sc(NC(=O)c2ccc3ccccc3c2)c1C(N)=O,"inconclusive [inhibitor, single point]",
CCN(c1cccc(C(F)(F)F)c1)S(=O)(=O)c1ccc2c(c1)CCN2C(=O)C1CC1,"inconclusive [inhibitor, full curve]",
O=C(CC1CC2CCC1C2)OCC(=O)c1c[nH]c2ccccc12 (stereo not drawn),inactive,
O=C(NCCOc1ccccc1)c1cccc(S(=O)(=O)NCc2ccccc2)c1,"inconclusive [inhibitor, single point]",
COc1cccc2cc(C(C)N(CCCN3CCOCC3)C(=O)Nc3ccc(Cl)cc3)oc12 (stereo not drawn),"inconclusive [inhibitor, partial curve, poor fit]",
Cc1nc2ccccn2c1-c1csc(Nc2cccc(O)c2)n1,active: 0.891 µM,
Cc1ccc(N2C(=O)c3n[nH]c(C)c3C2c2cccnc2)cc1 (stereo not drawn),inactive,
COc1cc(C2CC(=O)Oc3cc4c(cc32)OCO4)cc(OC)c1OC (stereo not drawn),inactive,
c1ccc(Cn2nnc3c(N4CCC5(CC4)OCCO5)ncnc32)cc1,"inconclusive [inhibitor, single point]",
CC(C)C(=O)Nc1cccc(COc2cccc(CN(Cc3ccccc3)C(=O)OC(C)(C)C)c2)c1,,inactive: 14.9% [at 8.37 µM]
CCN(CC)C(=O)C(=O)c1ccn(-c2c(C)csc2C(=O)OC)c1,inactive,
CCOC(=O)C1(Cc2cccc(OC)c2)CCN(Cc2ccc(C)s2)CC1,"inconclusive [inhibitor, single point]",
Cc1ccc(/C=C2\C(=O)NC(=O)N(CC3CCCO3)C2=O)s1 (stereo not drawn),inactive,
O=C(NNCc1ccc(O)cc1)c1ccccc1Cl,inactive,
CCN(c1cccc(C)c1)S(=O)(=O)c1ccc(-n2cccn2)cc1,"inconclusive [inhibitor, single point]",
Cc1nc(Nc2ccncc2)c2oc3ccccc3c2n1,active: 8.91 µM,
Cc1ccc(S(=O)(=O)N2CCC(C(=O)Nc3ccc(S(=O)(=O)N4CCCC4)cc3)CC2)cc1,inactive,
COc1ccc(C(CNC(=O)c2c(C)nn(Cc3ccc(C)cc3)c2Cl)N2CCOCC2)cc1 (stereo not drawn),"inconclusive [inhibitor, full curve, poor fit]",
COc1cc(/C=C2\OC(=O)c3c(OC)cccc32)ccc1O,"inconclusive [inhibitor, single point]",
Cc1cccc(NC2=Nc3ccccc3N3C2=Nc2c(c(C)nn2-c2ccccc2)C3c2ccc(O)c(O)c2)c1 (stereo not drawn),"inconclusive [inhibitor, single point]",
CC1CCc2sc(NC(=S)NC(=O)c3ccccc3)c(C#N)c2C1 (stereo not drawn),"inconclusive [inhibitor, partial curve]",
Cc1oc(-c2cccc(Cl)c2)nc1CN1CCC(C(=O)N2CCN(c3ccccn3)CC2)CC1,"inconclusive [inhibitor, partial curve]",
O=C([O-])c1cc(-c2ccccc2)cc(-c2ccccc2)[n+]1CCc1ccc(Cl)cc1,inactive,
CCCCCCSc1nnc(-c2cnn(-c3ccccc3)c2-n2cccc2)n1C,"inconclusive [inhibitor, single point]",
Cc1ncc(CO)c2cc(C(=O)Nc3ccccc3Cl)c(=Nc3cccc(C(N)=O)c3)oc12,"inconclusive [inhibitor, partial curve]",

SMILES,Potency,"activity change, negative = inhibition"
COC(=O)c1ccc(CSc2nc(C)nc3c2c(=O)n(C)c(=O)n3C)o1,"inconclusive [inhibitor, partial curve, poor fit]",
O=C(NCc1cccnc1)c1cccc2c1C(=O)N(C1CCCCC1)C2,"inconclusive [inhibitor, single point]",
C/C(N)=C(/C#N)C(=O)COC(=O)c1cc2c(s1)CCC(C)C2 (stereo not drawn),inactive,
O=C(NCCc1ccc(Cl)cc1)C1CCCO1 (stereo not drawn),inactive,
CC(C)CC1NC(=O)N(CC(=O)Nc2ccccc2-c2ccccc2)C1=O (stereo not drawn),inactive,
CCOC(=O)C1=C(C)NC(SCC(=O)Nc2cc(C)on2)=C(C#N)C1c1cccs1 (stereo not drawn),active: 10 µM,
Cc1ccc(SCc2cc(=O)[nH]c(Nc3nc(C)c4ccccc4n3)n2)cc1,"inconclusive [inhibitor, single point]",
O=C(CSc1nc(-c2ccccc2)c(-c2ccccc2)[nH]1)N1CCN(S(=O)(=O)c2ccccc2)CC1,"inconclusive [inhibitor, single point]",
CCCCOc1ccc(C(=O)NC)cc1,inactive,
Cc1nc(N2CCC(C)CC2)c2c(C)c(C(=O)Nc3cc(F)ccc3C)sc2n1,"inconclusive [inhibitor, partial curve]",
CCOC(=O)C1(CCOC)CCN(Cc2cccc(OCc3ccccc3)c2)CC1,"inconclusive [inhibitor, single point]",
Cc1ccc(S(=O)(=O)N2CCCCC2)cc1NC(=O)Cn1ccsc1=N,inactive,
O=C(Nc1ccccc1)Nc1cccc(Cl)c1,"inconclusive [inhibitor, single point]",
Cc1ccc(NC(=O)C2CCC(C(C)(C)C)CC2)cc1S(=O)(=O)N1CCOCC1 (stereo not drawn),"inconclusive [inhibitor, single point]",
COC(=O)c1cn(NC(=O)c2ccc(F)cc2)c(=O)c2ccccc12,"inconclusive [inhibitor, single point]",
Cc1ccc(-c2ccnc3c(Br)c(C)nn23)cc1,"inconclusive [inhibitor, single point]",
C/C=C/C(=O)Nc1cccc(C2=NOC3(C2)C[C@@H](C(N)=O)N(C(=O)C(c2ccccc2)c2ccccc2)C3)c1 (stereo partly drawn),"inconclusive [inhibitor, partial curve]",
COCCNC(=S)N/N=C(\C)c1cc2ccccc2o1,"inconclusive [inhibitor, single point]",
CCOc1ccc(S(=O)(=O)NC2CCCC2)cc1C,inactive,
O=C(C1CCN(S(=O)(=O)c2ccc3c(c2)OCCO3)CC1)N1CCc2ccccc21,"inconclusive [inhibitor, single point]",
Cc1cc(C)n(-c2nc(N(C)C)nc(N3CCOCC3)n2)n1,inactive,
Cc1csc(CNC(=O)c2cc(COc3c(C)cccc3C)on2)n1,inactive,
N#Cc1c(-c2cccs2)cc(-c2cccnc2)nc1N,"inconclusive [inhibitor, single point]",
CN(C)CCNC(=O)c1ccc(Sc2ccc(Br)cc2)c([N+](=O)[O-])c1,"inconclusive [inhibitor, full curve]",
Cn1cccc1CNCC(O)c1ccccc1 (stereo not drawn),inactive,

SMILES,Potency,"activity change, negative = inhibition"
O=C(Nc1cccnc1Cl)c1cc2c(s1)-c1ccccc1OC2,"inconclusive [inhibitor, partial curve]",
Cc1ccc(NC(=O)C2CCN(S(=O)(=O)c3ccc4c(c3)NC(=O)CO4)CC2)cc1,"inconclusive [inhibitor, single point]",
O=S(=O)(NCC1CCN(Cc2ccccc2)CC1)c1ccccc1C(F)(F)F,"inconclusive [inhibitor, single point]",
S=C1Cc2ccccc2N1,"inconclusive [inhibitor, full curve]",
CN(C)c1ncnc2sc(-c3ccccc3)cc12,active: 11.2 µM,
CCOc1ccc(-c2nc(C)c(C(C)=O)n2O)cc1,inactive,
Cn1cnnc1SCC(=O)Nc1ccc2nc(SCc3ccccc3)sc2c1,"inconclusive [inhibitor, partial curve]",
COC(=O)CSC1=C(C#N)C(c2ccccc2F)CC(=O)N1 (stereo not drawn),"inconclusive [inhibitor, partial curve]",
Cc1ccc2nc(-c3cccc(SC4CCCCC4)c3)c(NCc3ccccc3)n2c1,"inconclusive [inhibitor, single point]",
CCOc1ccc(CCNC(=O)c2ccc(C)c(S(=O)(=O)N3CCOCC3)c2)cc1OCC,active: 10 µM,
Cc1cccc(-n2c(CNC(=O)c3ccccc3)nnc2SCC(=O)Nc2nccs2)c1,"inconclusive [inhibitor, single point]",
Cc1ccc(NC(=O)C(=O)NN)cc1,inactive,
C=CCOc1ccc(-c2n[nH]c(=S)o2)cc1,"inconclusive [inhibitor, single point]",
COc1ccc(N2CCN(CCCNC(=O)Cn3c(=O)c4cccn4c4cccnc43)CC2)cc1,"inconclusive [inhibitor, partial curve]",
Cc1c(C(=O)OCC(=O)N2CCC(C)CC2)oc2ccccc12,inactive,
CC(=O)c1sc(NC(=O)CCS(=O)(=O)c2ccc(C)cc2)nc1C,active: 2.82 µM,
CCCCC(=O)Nc1cc(OC)c(NC(=S)Nc2ccc(OC)cc2)cc1OC,"inconclusive [inhibitor, partial curve]",
COc1ccc([C@H]2CC(=O)C=C(c3ccc(C)cc3)C2)cc1OC,"inconclusive [inhibitor, single point]",
COc1ccc(S(=O)(=O)Cc2ccc(C(=O)NCc3ccccc3)o2)cc1,inactive,
CCCCCCCCC(=O)NCc1ccc(O)c(OC)c1,inactive,
COc1ccccc1OCC(=O)Nc1ccc(S(=O)(=O)N(C)c2ccccc2)cc1,active: 11.2 µM,
CC1Cc2cc(-c3csc(NC(=O)Cc4cccs4)n3)ccc2N1S(C)(=O)=O (stereo not drawn),active: 6.31 µM,
COc1ccc(CN(C)C(=O)c2ccccc2Sc2ccccc2C#N)c(OC)c1,"inconclusive [inhibitor, single point]",
